Binding signal data for nine molecules are collected here from article PMC9911399, “Two distinct binding modes provide the RNA-binding protein RbFox with extraordinary sequence specificity”.

To fix the notation:
B1: GGUUGCG (DNA:RNA)
RNA: GGGAGACCGGAAUUCAGAUUGUCCGGUUGCGUUAAAUCCCGUCGUAGCCACCA
DNA 1: CAATCTGAATTCCGGTCTCCC
DNA 2: TGGTGGCTACGACGGGATT
B2: UAGGCCC (DNA:RNA)
RNA: B1 RNA with G25U, G26A, U27G, U28G, G29C, G31C
DNA 1: CAATCTGAATTCCGGTCTCCC
DNA 2: TGGTGGCTACGACGGGATT
B3: CUCUACC (DNA:RNA)
RNA: B1 RNA with G25C, G26U, U27C, G29A, G31C
DNA 1: CAATCTGAATTCCGGTCTCCC
DNA 2: TGGTGGCTACGACGGGATT
B4: CUUGAUG (DNA:RNA)
RNA: B1 RNA with G25C, G26U, U28G, G29A, C30U
DNA 1: CAATCTGAATTCCGGTCTCCC
DNA 2: TGGTGGCTACGACGGGATT
B5: UUACUAG (DNA:RNA)
RNA: B1 RNA with G25U, G26U, U27A, U28C, G29U, C30A
DNA 1: CAATCTGAATTCCGGTCTCCC
DNA 2: TGGTGGCTACGACGGGATT
B6: CGAAGCA (DNA:RNA)
RNA: B1 RNA with G25C, U27A, U28A, G31A
DNA 1: CAATCTGAATTCCGGTCTCCC
DNA 2: TGGTGGCTACGACGGGATT
B7: AUCCAUA (DNA:RNA)
RNA: GGGAGACCGGAAUUCAGAUUGUCCAUCCAUAUUAAAUCCCGUCGUAGCCACCA
DNA 1: CAATCTGAATTCCGGTCTCCC
DNA 2: TGGTGGCTACGACGGGATT
B8: CAGGCGC (DNA:RNA)
RNA: GGGAGACCGGAAUUCAGAUUGUCCCAGGCGCUUAAAUCCCGUCGUAGCCACCA
DNA 1: CAATCTGAATTCCGGTCTCCC
DNA 2: TGGTGGCTACGACGGGATT
B9: UAAAUGA (DNA:RNA)
RNA: B8 RNA with C25U, G27A, G28A, C29U, C31A
DNA 1: CAATCTGAATTCCGGTCTCCC
DNA 2: TGGTGGCTACGACGGGATT

Substitutions are numbered along the chain they refer to; changes in the protein carry UniProt numbers. The list shows a part of the results.

In this assay the target is T1, RBFOX1 RRM (Homo sapiens, UniProt Q9NWB1 109-208).
T1 sequence: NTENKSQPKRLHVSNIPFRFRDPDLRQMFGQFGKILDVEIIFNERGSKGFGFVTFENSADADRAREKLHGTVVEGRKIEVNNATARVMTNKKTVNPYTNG
The assay is described as follows: EMSA; HiTS-Eq, 1 nM pool, 10 min; buffer printed only for the single-RNA assays: 10 mM Tris pH 7.5, 150 mM NaCl, 3.4 mM EDTA, 0.001% NP-40, 30 C. The conditions noted are these: tags: His6 N-terminal (pET28a); label: 5' 32P. Summed up:
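Purified wild-type or mutant RbFox RRM at increasing concentrations was equilibrated with 1 nM of 5′-radiolabelled RNA carrying 7 randomized nucleotides for 10 min in 50 µL. Unbound RNA was separated by 8% native PAGE and sequenced. Relative association constants came from read-count changes of each RNA species compared with the control reaction, normalised to the cognate motif.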
Take B1: the binding signal is 0.0185 KA relative to UGCAUGU.

On to B2, for which the binding signal was 0.011 KA relative to UGCAUGU.

Take B3: the binding signal is 0.00511 KA relative to UGCAUGU.

Turning to B4, the binding signal is 0.0197 KA relative to UGCAUGU.

As to B5, the binding signal is 0.0111 KA relative to UGCAUGU.

Consider B6, for which the binding signal was 0.0141 KA relative to UGCAUGU.

B7: the binding signal was 0.000976 KA relative to UGCAUGU.

On to B8, for which the binding signal was 0.0124 KA relative to UGCAUGU.

As for B9, the binding signal was 0.0076 KA relative to UGCAUGU.
